{"source": "the supplement of paper PMC10338343", "note": "± gives the standard deviation. The full ranking holds about 6,600 sequences; the median of “pre-steady-state target cleavage rate” is about 0.07, and the highest 2% start at about 0.72. The list shows a part of the results, in another mix than the full data."}
{"tested_on": "MIWI (PIWIL1) piRISC loaded with Kctd7 piRNA (30 nt)", "assay": "pre-steady-state target cleavage rate (min^-1); MIWI and MILI are mouse PIWI proteins and EfPiwi is from a freshwater sponge; tags in brackets are library labels; higher = faster piRNA-guided slicing of the target", "conditions": "guide: Kctd7 piRNA 5'p-UGUUAAUCUCUCAGAGAAGGUGACAGUGAU; auxiliary factor: 500 nM mouse GTSF1", "in_short": "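The pre-steady-state cleavage rate was obtained by Cleave-'n-Seq with a burst-and-steady-state fit. A transcribed, DNA-blocked target RNA library (0.1 nM) was mixed with 1 nM active affinity-purified piRISC carrying one synthetic guide, with or without 500 nM GTSF1 partner protein, in HEPES–potassium acetate buffer at 33 °C for 0–8 or 0–960 min. Uncleaved targets were sequenced and normalised to depth and to weakly complementary targets, with three trials pooled and k3 capped at 0.0001 min^-1.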"}
{"sequence": "AUCACUGUCACCUUCUCUCUCAGAUUAUGA", "pre-steady-state target cleavage rate": "0.00466 ± 0.0037"}
{"sequence": "UAGUGACAGUGGAAGAGACAGAAUUAACA", "pre-steady-state target cleavage rate": "< 0.0001"}
{"sequence": "UACACACACACCUUCUCUGAGAGAUUAAGA", "pre-steady-state target cleavage rate": "0.117 ± 0.028"}
{"sequence": "UUCACUAUCACCUUCUCUGAGAGAUUAACA", "pre-steady-state target cleavage rate": "0.608 ± 0.033"}
{"sequence": "UAGUGAGUCAGGUUCUCUGAGAGAUUAUGA", "pre-steady-state target cleavage rate": "0.00592 ± 0.0026"}
{"sequence": "AUCACUGUCACCUUCUCUGAGAGUUUAAGA", "pre-steady-state target cleavage rate": "0.526 ± 0.13"}
{"sequence": "UUCACUGUCACCUUCUCUGAGAGAAAAACA", "pre-steady-state target cleavage rate": "0.143 ± 0.031"}
{"sequence": "UAGUGUGUUCACCUUCUCUGAGAGAUUAACA", "pre-steady-state target cleavage rate": "0.589 ± 0.037"}
{"sequence": "UAGUCUGUGUCCUUCUCUGAGAGAUUAACA", "pre-steady-state target cleavage rate": "0.317 ± 0.028"}
{"sequence": "UAGUCUGGUCACCUUCUCUGAGAGAUUAACA", "pre-steady-state target cleavage rate": "0.749 ± 0.046"}
{"sequence": "UAGUGUGUCAGCUUCUCUGAGACAUUAACA", "pre-steady-state target cleavage rate": "0.0195 ± 0.0039"}
{"sequence": "AUCACUGUCAGCAUCUCUGAGAGAUUAACA", "pre-steady-state target cleavage rate": "0.673 ± 0.045"}
{"sequence": "UACACUGUCACCUUCUCUGAUGAGAUUAACA", "pre-steady-state target cleavage rate": "0.0134 ± 0.0066"}
{"sequence": "UAGUGACUCACCUUCUCUGUGAGAUAUUGA", "pre-steady-state target cleavage rate": "0.00542 ± 0.0036"}
{"sequence": "UAGACUGUCACCUUCUCUGAAAGAUUAACA", "pre-steady-state target cleavage rate": "0.292 ± 0.02"}
{"sequence": "UAGUGUGUCACCUACUCUGAGAGAUUAAGA", "pre-steady-state target cleavage rate": "0.158 ± 0.021"}
{"sequence": "UAGUGAGAGUCCUUCUCUGAGAGAUUAACA", "pre-steady-state target cleavage rate": "0.145 ± 0.017"}
{"sequence": "AUCAGUGUCACCUACUCUGAGAGAUUAACA", "pre-steady-state target cleavage rate": "0.666 ± 0.043"}
{"sequence": "AUCACUGUCACCCUUCUCUGAGAGAUUAACA", "pre-steady-state target cleavage rate": "0.532 ± 0.028"}
{"sequence": "UAGUCUGUCACCUUGUCUGAGAGAUUAUCA", "pre-steady-state target cleavage rate": "0.144 ± 0.025"}
{"sequence": "UAGUCUGUCACCUUCUCUGAGAGACUAACA", "pre-steady-state target cleavage rate": "0.169 ± 0.028"}
{"sequence": "UAGUCUGUCACCCUCUCUGAGAGAUUAACA", "pre-steady-state target cleavage rate": "0.671 ± 0.038"}
{"sequence": "UAGUGAGUCACCUUCACUGAGACAUUAACA", "pre-steady-state target cleavage rate": "0.205 ± 0.036"}
{"sequence": "UAGACUGUCACCUAGUCUGAGAGAUUAUGA", "pre-steady-state target cleavage rate": "0.00667 ± 0.0039"}
{"sequence": "UAGUGUGUCACCAUCUCUGAGACAUUAACA", "pre-steady-state target cleavage rate": "0.169 ± 0.022"}
{"sequence": "UAGUGACAGUCCUUCUGUGUGAGAUUAACA", "pre-steady-state target cleavage rate": "0.0038 ± 0.0038"}
{"sequence": "UAGUCUGUGUCCUUCUCUGAGAGAUUAAGA", "pre-steady-state target cleavage rate": "0.0624 ± 0.011"}
{"sequence": "UAGUCUGUCACCUUCUCUGAGAGAUUUACA", "pre-steady-state target cleavage rate": "0.343 ± 0.039"}
{"sequence": "UAGUGAGUCACCUUCUCUGAGACAAUAACA", "pre-steady-state target cleavage rate": "0.0552 ± 0.011"}
{"sequence": "UAGUGAGUCACGUUCUCUGAGAGAUUUACA", "pre-steady-state target cleavage rate": "0.222 ± 0.03"}
{"sequence": "UACACUGUCACCUUCACUGAGAGAUUAUCA", "pre-steady-state target cleavage rate": "0.148 ± 0.026"}
{"sequence": "UAGUGACAGUCCUUCUCUGAGAGAUUAAUCA", "pre-steady-state target cleavage rate": "0.0204 ± 0.0045"}
{"sequence": "UAGACUCUCACCUUCUCUGAGAGAUUAACA", "pre-steady-state target cleavage rate": "0.431 ± 0.029"}
{"sequence": "UAGUGACACACCUUGACUGAGAGAUUAACA", "pre-steady-state target cleavage rate": "0.0105 ± 0.0029"}
{"sequence": "UAGACUGUCUGGUUCUCUGAGAGAUUAACA", "pre-steady-state target cleavage rate": "0.103 ± 0.012"}
{"sequence": "UAGACUGUCACCUUCUCUGUGAGAUUAAGA", "pre-steady-state target cleavage rate": "0.0951 ± 0.013"}
{"sequence": "AUCACUGUCACCCUCUCUGAGAGAUUAACA", "pre-steady-state target cleavage rate": "0.639 ± 0.04"}
{"sequence": "UAGUGACACACCUUCUCUGACAGAUUUACA", "pre-steady-state target cleavage rate": "0.0123 ± 0.0038"}
{"sequence": "UAGUCUGUCACCUUCUCAGAGACAUUAACA", "pre-steady-state target cleavage rate": "0.16 ± 0.02"}
{"sequence": "UUCACUCUCACCUUCUGUGAGAGAUUAACA", "pre-steady-state target cleavage rate": "0.114 ± 0.013"}
{"sequence": "UAGUGACAGUGCUUCUCUGAGAGAUUAACA [g2:g19:cont:t1A]", "pre-steady-state target cleavage rate": "0.0159 ± 0.0024"}
{"sequence": "UAGUGACACACCUACUCUGUGAGAUUAACA", "pre-steady-state target cleavage rate": "0.0531 ± 0.0085"}
{"sequence": "UAGUCUGUCACCUUCUCUGAGAGUAUAAGA", "pre-steady-state target cleavage rate": "0.01 ± 0.0047"}
{"sequence": "UAGUGACAGUGGAACUCUGAGAGAUCAACA", "pre-steady-state target cleavage rate": "< 0.0001"}
{"sequence": "UAGUGUGACACCUUCUCUGAGAGAUUUACA", "pre-steady-state target cleavage rate": "0.284 ± 0.045"}
{"sequence": "UAGUCUGUCACCUUCUCUGAGAGAUUAUACA", "pre-steady-state target cleavage rate": "0.258 ± 0.035"}
{"sequence": "UUCACACUCACCUUCUCUGAGAGAUUAUGA", "pre-steady-state target cleavage rate": "0.104 ± 0.025"}
{"sequence": "UAGUGACACAGCUUCUCUGAGAGAUUUACA", "pre-steady-state target cleavage rate": "0.0581 ± 0.0086"}
{"sequence": "UAGACUGUCACCUUCUGUGAGAGAUUAUGA", "pre-steady-state target cleavage rate": "0.0716 ± 0.013"}
{"sequence": "UAGUGACUCACCUUGUCUGAGUGAUUAACA", "pre-steady-state target cleavage rate": "0.0162 ± 0.003"}
{"sequence": "UACACUGUCAGGAUCUCUGAGAGAUUAAGA", "pre-steady-state target cleavage rate": "0.0115 ± 0.0029"}
{"sequence": "UAGUCUGUCACCUUAUCUGAGAGAUUAACA", "pre-steady-state target cleavage rate": "0.451 ± 0.023"}
{"sequence": "UUCUGUGUCACCUUCUCUGAGAGAUUUUGA", "pre-steady-state target cleavage rate": "0.152 ± 0.03"}
{"sequence": "UAGUGUGUCCACCUUCUCUGAGAGAUUAACA", "pre-steady-state target cleavage rate": "0.408 ± 0.041"}
{"sequence": "UAGACUGUCACCUUCUCUGAGAGCUUAACA", "pre-steady-state target cleavage rate": "0.226 ± 0.029"}
{"sequence": "UAGUGAGUCUCCUUCUCUGAGUGAUUAACA", "pre-steady-state target cleavage rate": "0.0201 ± 0.0023"}
{"sequence": "UAGACUGUCACCUUCUCUGAGAAAUUAACA", "pre-steady-state target cleavage rate": "0.166 ± 0.016"}
{"sequence": "UACACUGUCACCUUGUCUGAGAGAUUAUCA", "pre-steady-state target cleavage rate": "0.193 ± 0.039"}
{"sequence": "UACACUGUGAGCUUCUCUGAGAGAUUAACA", "pre-steady-state target cleavage rate": "0.45 ± 0.025"}
{"sequence": "AUCACUGUCACCUUCUCUCAGAGAUUAACA", "pre-steady-state target cleavage rate": "0.161 ± 0.018"}
{"sequence": "UACACUGUCACCUAGUCUGAGAGAUUAUGA", "pre-steady-state target cleavage rate": "0.0278 ± 0.012"}
{"sequence": "AUCUGUGUCACCUUCUCUGAGAGAUUAAGA", "pre-steady-state target cleavage rate": "0.0669 ± 0.012"}
{"sequence": "UUCACUCUCACCUUCUCUGAGACAUUAACA", "pre-steady-state target cleavage rate": "0.332 ± 0.026"}
{"sequence": "UAGUGACUCACCUUCUCUGAGUGUUUAACA", "pre-steady-state target cleavage rate": "0.0151 ± 0.0038"}
{"sequence": "UACUGAGUCACCUUCUCUGAGAGAUUAACA", "pre-steady-state target cleavage rate": "0.597 ± 0.045"}
{"sequence": "UAGUGACACACCUUCUCUGAGGGAUUAACA", "pre-steady-state target cleavage rate": "0.534 ± 0.043"}
{"sequence": "UAGUGACAGUGCUUCUCCGAGAGAUUAACA", "pre-steady-state target cleavage rate": "0.0118 ± 0.0036"}
{"sequence": "UAGUCUGUCACCUACUCUGAGAGAUUAACA", "pre-steady-state target cleavage rate": "0.551 ± 0.034"}
{"sequence": "UACACUGUCUCGUUCUCUGAGAGAUUAACA", "pre-steady-state target cleavage rate": "0.597 ± 0.03"}
{"sequence": "UACACUGUGACCUUCUCUGACAGAUUAACA", "pre-steady-state target cleavage rate": "0.378 ± 0.03"}
{"sequence": "UAGUGAGUCACCAUCUCUGUGAGAUUAACA", "pre-steady-state target cleavage rate": "0.133 ± 0.0078"}
